Measured values published in paper PMC4336329 (PLoS ONE, 2015).
Out of some 310,000 compounds screened, about 2,200 (0.71%) showed an effect of 50% or more. The effect is printed as a negative number. This is one part of the list.

These molecules were tested against human ether-à-go-go-related gene (hERG) potassium channel (human, UniProt Q12809) (assay: primary screen, population patch clamp on CHO cells stably expressing hERG).
Chain of human ether-à-go-go-related gene (hERG) potassium channel (Q12809 whole entry, looked up): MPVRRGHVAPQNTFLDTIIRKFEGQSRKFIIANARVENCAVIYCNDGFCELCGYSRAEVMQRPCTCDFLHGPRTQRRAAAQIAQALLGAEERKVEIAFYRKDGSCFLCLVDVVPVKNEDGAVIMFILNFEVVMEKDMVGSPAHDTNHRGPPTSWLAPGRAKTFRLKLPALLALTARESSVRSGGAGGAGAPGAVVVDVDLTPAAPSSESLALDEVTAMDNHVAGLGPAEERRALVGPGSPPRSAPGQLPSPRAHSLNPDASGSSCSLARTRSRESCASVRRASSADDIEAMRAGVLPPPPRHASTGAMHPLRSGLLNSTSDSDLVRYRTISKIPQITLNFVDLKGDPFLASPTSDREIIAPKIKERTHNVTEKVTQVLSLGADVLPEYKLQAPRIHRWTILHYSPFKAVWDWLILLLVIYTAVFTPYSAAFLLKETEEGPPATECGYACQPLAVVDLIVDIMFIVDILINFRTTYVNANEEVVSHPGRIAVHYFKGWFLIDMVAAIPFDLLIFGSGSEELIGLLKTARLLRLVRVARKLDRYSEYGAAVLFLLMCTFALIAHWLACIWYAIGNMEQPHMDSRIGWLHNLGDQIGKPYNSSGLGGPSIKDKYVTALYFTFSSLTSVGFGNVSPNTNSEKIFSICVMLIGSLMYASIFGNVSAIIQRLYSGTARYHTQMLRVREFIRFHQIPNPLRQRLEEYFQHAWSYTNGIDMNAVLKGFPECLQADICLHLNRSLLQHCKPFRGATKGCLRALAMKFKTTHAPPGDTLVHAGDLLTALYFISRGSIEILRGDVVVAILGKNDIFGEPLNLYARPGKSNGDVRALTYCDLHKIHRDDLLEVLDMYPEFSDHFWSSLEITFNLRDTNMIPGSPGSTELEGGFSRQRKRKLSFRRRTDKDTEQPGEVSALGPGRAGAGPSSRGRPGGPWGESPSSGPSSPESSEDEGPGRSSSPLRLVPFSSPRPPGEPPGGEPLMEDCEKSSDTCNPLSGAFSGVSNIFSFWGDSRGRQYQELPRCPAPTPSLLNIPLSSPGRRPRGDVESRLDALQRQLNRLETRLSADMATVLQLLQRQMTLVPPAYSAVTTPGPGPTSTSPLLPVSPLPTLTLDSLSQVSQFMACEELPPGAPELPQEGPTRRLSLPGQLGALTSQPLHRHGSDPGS

SMILES	hERG current change (%, negative = inhibition) at 1uM [%]
CC(C)OC(=O)CSc1nnc(-c2ccc(O)cc2)n1Cc1ccccc1	10.7
Cc1ccc(C(=O)NC2CCCC2)s1	0.734
O=C(Nc1cccc(Cl)c1)Nc1ccc(Br)cc1F	8.99
CCN(CC)Cc1c(O)ccc2occ(C(=O)c3ccccc3)c12	-57.3
Cc1ccnc(SCC(=O)Nc2c(C)n(C)n(-c3ccccc3)c2=O)n1	11.4
O=C(CN1CCc2cc3c(cc2C1)OCCCO3)Nc1ccc(S(=O)(=O)N2CCCC2)cc1	5.36
CC(NS(=O)(=O)c1ccc2c(c1)CC(C)N2C(=O)C1CC1)c1ccccc1 (stereo not shown)	20.3
Nc1nc(SCC(=O)c2ccc(Br)s2)n[nH]1	16
O=[N+]([O-])c1cccc(CN2CCN(S(=O)(=O)Cc3ccccc3)CC2)c1	4.75
O=C(CN1CCCCC1)N1CCCc2c1c(=O)oc1ccc(OCc3ccccc3)cc21	-12.3
CCN(CC)S(=O)(=O)c1cccc(C(=O)N/N=C/c2cc(OC)c(O)c(OC)c2)c1	9.53
CC(=O)c1ccc(NS(=O)(=O)Cc2ccccc2)cc1	10.8
CSc1cccc(N2CC(C(=O)NCCN3C(=O)S/C(=C\c4cccnc4)C3=O)CC2=O)c1 (stereo not shown)	-21
O=C(COC(=O)C1CCC(=O)N1)Nc1ccccc1Br (stereo not shown)	12
COc1ccccc1N1CCN(Cc2cc3c(cc2[N+](=O)[O-])OCO3)CC1	13.7
Cc1nn(-c2ncc(C(F)(F)F)cc2Cl)c(=O)n1-c1c(F)cccc1F	12
S=c1[nH]nc(-c2c[nH]c3ccccc23)o1	14.8
CCOC(=O)N1CCN(S(=O)(=O)c2ccc(C(=O)Nc3nnc(C)o3)cc2)CC1	7.3
O=C(Nc1ccccc1)C1=C[C@@H](c2coc3ccccc3c2=O)C[C@@H](OCCCCO)O1	5.86
C[C@H](O)CC(=O)[O-].[Na+]	7.33
COC(=O)c1sc(NC(=O)COc2cccc3ccccc23)nc1C	12.7
CN(C)S(=O)(=O)c1ccc(N2CCCC2)c(C(=O)Nc2cccc(F)c2)c1	-2.24

SMILES	hERG current change (%, negative = inhibition) at 1uM [%]
NC(=O)Cn1c(=O)n(-c2ccccc2)c(=O)c2oc3ccccc3c21	2.38
O=c1c2ccccc2nc(/C=C/c2ccc(Br)cc2)n1CCCO	11.9
Cc1ccc2c(c1)N(CC(=O)NCCCN1CCCCC1)C(=O)c1cccnc1O2	0.911
O=S(=O)(c1ccc2nc(Nc3ccccc3)ccc2c1)N1CCCCC1	8.1
Cc1ccc2c(c1)c(=O)c1c3n2CCN(CC2CO2)C3CC1 (stereo not shown)	8.3
O=C(COC(=O)CSc1ccc([N+](=O)[O-])cc1)NCC1CCCO1 (stereo not shown)	0.848
Clc1ccc(Nc2nc(-c3cccnc3)cs2)cc1	3.11
COc1ccc(CCNC(=O)CC2SC(=NCCc3ccccc3)NC2=O)cc1OC (stereo not shown)	12
Cn1c(=O)n(C)c2cc([N+](=O)[O-])c(N3CCN(C(=O)c4ccc(Cl)cc4)CC3)cc21	-17.7
CS(=O)(=O)N(CC(=O)N1CCC(C(N)=O)CC1)c1ccc(Oc2ccccc2)cc1	-7.56
CCOC(=O)C1(Cc2ccccc2)C(=O)Nc2ccccc21 (stereo not shown)	6.8
COc1ccc(C(CNC(=O)COc2ccc(F)cc2Br)N2CCCC2)cc1 (stereo not shown)	-6.05
CCOc1cccc(C(=O)Nc2cccc(C(=O)NCC(C)C)c2)c1	-3.66
Cc1ccc(Cn2ccc(NC(=O)c3cc(-c4ccc(F)cc4)on3)n2)cc1	12
Nc1ncc(Br)cc1S(=O)(=O)N1CCCCCC1	15.5
N#CC1(NC(=O)CSc2nnc(Nc3ccccc3F)s2)CCCC1	12.8
CCN(CCCNC(=O)CN1C(=O)COc2ccccc21)c1ccccc1	6.59
CCOCC(O)CSCc1ccc(Cl)cc1 (stereo not shown)	0.921
COc1cc(/C=C2/C(=O)N(c3ccc(C(=O)O)cc3)N=C2C)cc(OC)c1O	12.4
CC(Sc1nc2ncc(Cl)cc2[nH]1)C(=O)c1c(N)n(C)c(=O)n(C)c1=O (stereo not shown)	7.56
CCCCCC(C)NC(=O)c1ccoc1C (stereo not shown)	-8.48
CC(C)n1ncc2c(C(=O)Nc3cccc(C#N)c3)cc(C3CC3)nc21	-9.89

SMILES	hERG current change (%, negative = inhibition) at 1uM [%]
COC(Cn1cc(C)c(=O)[nH]c1=O)OC	13.7
Cc1ccc(C2C(C#N)=C(N)OC3=C2C(=O)CCC3)s1 (stereo not shown)	14.8
FC(F)(F)c1ccc(Cl)c(NC(=S)N/N=C/c2ccccc2Cl)c1	12.1
CCn1c(CNC(=O)Cc2ccc(OC)cc2)nnc1SCC(=O)c1ccc(Br)cc1	-4.68
COc1cc2[nH]c(=O)n(CCCCCC(=O)NCCc3c[nH]c4ccccc34)c(=O)c2cc1OC	6.66
Cc1ccc(NC(=O)OCCNC(=O)OC(C)C)cc1	4.7
CCOC(=O)C1=C(CSc2nc3ccccc3s2)NC(=O)NC1c1cc(C)ccc1C (stereo not shown)	4.72
CN(C(=O)CN1C(=O)NC(C)(CCc2ccccc2)C1=O)c1ccccc1 (stereo not shown)	21.5
COc1ccc(CNc2ncnc3cc(OC)c(OC)cc23)cc1OC	23.7
O=P(c1ccc2c(c1)OCCO2)(N1CCOCC1)N1CCOCC1	18.2
COc1ccc(C2/C(=C(\O)c3ccc(OC)c(Cl)c3)C(=O)C(=O)N2CCN(C)C)cc1 (stereo not shown)	12.2
Cc1ccccc1Oc1ccc(S(=O)(=O)NCCC(=O)O)cc1	17.3
Cc1ccccc1C(=O)Nc1cc(NC(=O)c2ccccc2C)cc(C(=O)O)c1	14
Cc1cccc(NS(=O)(=O)c2c(C)nc3scc(C)n3c2=O)c1	-1.52
O=C(Cn1c2ccccc2c(=O)c2ccccc21)Nc1cccc(F)c1	12.8
COC(=O)c1ccc2[nH]c3cccc(/C(=C/c4ccccc4)c4ccccc4)c3c2c1	11
O=C(C1=C[C@@H](c2ccccc2)C[C@@H](OCCCCO)O1)N1CCOCC1	8.55
Cc1ccc(NC(=O)c2cnc(SCC(=O)NCC3CCCO3)n(C)c2=O)cc1C (stereo not shown)	-8.96
CCN(CC)C(=O)c1ccc(NC(=O)c2c(C)noc2C)cc1	4.43
COCCCNC(=O)CSc1nc2ccccc2c(=O)n1Cc1ccc2c(c1)OCO2	11.6
COc1ccc(CNC(=O)COC(=O)c2c(NC(C)=O)sc(C)c2C)cc1	8.4
COC(=O)CN1C(=O)C(O)(CC(=O)c2ccc(C)cc2)c2cc(Br)ccc21 (stereo not shown)	-3.95

SMILES	hERG current change (%, negative = inhibition) at 1uM [%]
Cc1ccn2c(=O)nc(SCC(=O)NCc3ccco3)nc2c1	5.38
CCOC(=O)c1c(C)oc2c1c(CN1CCN(C(=O)OCC)CC1)c(O)c1ccccc12	10.7
CCOC(=O)c1cnc2c([N+](=O)[O-])cnn2c1C	8.79
CC[n+]1c(-c2ccccc2)csc1Nc1c(C)n(C)n(-c2ccccc2)c1=O.[Br-]	8.62
COCCn1c(SCC(=O)N2CCc3ccccc32)nc2c(c1=O)SC(C)C2 (stereo not shown)	-2.7
COc1c(C)cc(Br)cc1C(=O)Nc1ccc(N2CCN(S(C)(=O)=O)CC2)cc1	12.5
O=c1nc2c(-c3ccccc3F)n[nH]n2c2ccccc12	15.9
Cc1cccc(-n2ncc3c(N4CC(C)CC(C)C4)ncnc32)c1 (stereo not shown)	11
CCc1ccc(C(=O)COC(=O)c2ccccc2OC)cc1	8.55
O=C1CCCC(O)=C1C1C2=C(CCCC2=O)Oc2ccccc21 (stereo not shown)	2.89
Cc1ccc(/C=N/NC(=O)C[n+]2ccccc2)s1.[Cl-]	15.7
CN(C)/C=C1\C=C2C(=O)c3ccccc3N2C1=O	12.6
O=[N+]([O-])c1cc2c(c(CSc3nnc(Nc4ccccc4)s3)c1)OCOC2	5.06
COc1ccccc1CN1CCN(C(=O)c2ccncc2)CC1	14.3
O=C(NCc1cccs1)C1CC(=O)N(C2CCCC2)C1 (stereo not shown)	9.68
COCCn1c(SCC(=O)NC2CC2)nnc1-c1ccc(Cl)cc1	5.3
COc1ccc(N2Cc3ccccc3C2=NC(=O)c2cccc([N+](=O)[O-])c2)cc1	18.8
COc1cc(NC(=O)CSc2ncnc3sc4c(c23)CCCC4)c(C(=O)O)cc1OC	7.01
C=CCc1ccccc1OCC(O)CN1CCN(CCN2C(=O)c3cccc4cccc(c34)C2=O)CC1.Cl (stereo not shown)	-35.4
CCN(CC)c1ccc(/C=N/Nc2nc(C)cc(C)n2)cc1	9.14
Cc1cnc(C(=O)Nc2ccccc2-n2cccc2)cn1	-20.5
C=CCSc1nc(C)c(CCC(C)C)c(=O)[nH]1	-3.63
